Here are results for 61 compounds from PubChem BioAssay AID493208 (National Center for Advancing Translational Sciences (NCATS), 2011).

Among all 44,000 compounds or so, about 340 (0.77%) were called active. About 5% were inconclusive and are not listed. The call rests on the fitted dose curve; in most records, active means well fitted inhibition curve with a large enough effect; inconclusive means small, poorly fitted or top-dose-only effect; inactive means flat fitted curve, though single readings scatter. Some of the results follow.
Potency means the concentration at half of the fitted maximal effect.

The assay can be described thus: Acumen qHTS Assay for Inhibitors of the mTORC1 Signaling Pathway in MEF (Tsc2-/-, p53-/-) Cells: Sytravon. Further: nearly all actives have a fitted effect of over 50% in size.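 On activity change, negative = inhibition: plate controls were DMSO for no effect and rapamycin for full effect.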 The settings on record: phospho-rpS6 immunofluorescence/PI, 24 h; series mostly up to 38.3 µM; activity change, negative = inhibition: at the top concentration. In a few lines:
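Immunofluorescence of rpS6 phosphorylation in Tsc2-/-, p53-/- MEFs after 24 h compound exposure, normalized to propidium iodide signal. Activity is expressed as % positive cells, thresholded with 7.5 nM rapamycin.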
(Quantitative high-throughput screening tests each substance at several concentrations.)
As for `Cc1ccc2nc(NC(=O)c3nc(SCc4ccccc4C)ncc3Cl)sc2c1`, the “activity change, negative = inhibition” value was inactive: 4.83%.

As for `O=C(O)CCc1nnc2cnc3ccccc3n12`, the “activity change, negative = inhibition” value is inactive: -0.307%.

With `Cc1ccc2ncc(C(=O)NC(C)c3ccccc3)c(=O)n2c1` (stereo unspecified), the “activity change, negative = inhibition” value is inactive: 1.38%.

As for `CCc1nn(CC(=O)NCCCc2ccccc2)c(=O)c2cc3c(OC)cccc3n12`, the “activity change, negative = inhibition” value is inactive: -9.01%. With `CC(=O)N1CCC2(CC1)OC(=O)C(C)=C2C(=O)NCc1cccc(Cl)c1`, the “activity change, negative = inhibition” value is inactive: -0.694%. Same read-out and setting: next, `Cc1ccc(N2CCN(C(=O)c3c(C)oc4ncnc(N5CCOCC5)c34)CC2)c(C)c1`: inactive: -7.9%; `Cc1ccc(N2C(=O)CS(=O)(=O)C23C(=O)N(C)c2ccccc23)cc1F` (stereo unspecified): inactive: -3.89%. The same measure, in the same setting: the same measure for `Cc1ccc(CN2CCCn3nc(C(=O)NCc4cc(C)ccc4C)cc3C2=O)cc1`: inactive: 0%. Same read-out and setting: next, `Cc1ccc(C(=O)Nc2nnc(S(=O)(=O)N3CCN(c4ccc(F)cc4)CC3)s2)cc1`: inactive: 7.03%; `O=[N+]([O-])c1cc(-c2nc(-c3ccccn3)no2)ccc1NCc1ccccc1`: inactive: -0.653%; `CCc1cccc(NC(=O)CSc2ncc3c(n2)-c2ccccc2N(CC)S3(=O)=O)c1`: inactive: -5.21%.

Turning to `COc1ccc(NC(=O)C(C)n2nc(-c3cc(C)ccc3C)c3c(c2=O)CCCC3)cc1` (stereo unspecified), the “activity change, negative = inhibition” value was inactive: -6.07%. Same read-out and setting: next, `COCCCNC(=O)CCC(=O)NNc1nc2ccccc2c2nc(-c3ccccc3)nn12`: inactive: -7.69%. For `COCCNC(=O)CSc1nc2cc3c(cc2c(=O)n1Cc1ccc(C(=O)NCCc2ccc(OC)c(OC)c2)cc1)OCO3`, the “activity change, negative = inhibition” value is inactive: -4.98%. Same read-out and setting: the same measure for `CCOc1ccc(NC(=O)CSc2nnc(-c3ccncc3)n2-c2ccccc2)cc1`: inactive: -2.55%; for `COc1ccc(CNC(=O)c2ccc(CSc3nc4ccncc4n3Cc3ccccc3F)cc2)cc1`: inactive: 1.05%. In the case of `CCOc1ccc(Nc2ncnc3c2cnn3-c2ccc(F)cc2)cc1`, the “activity change, negative = inhibition” value was inactive: 13%. The same measure, in the same setting: the same measure for `CCOC(=O)C(=O)Nc1nnc2n1CCS2`: inactive: -0.909%; for `Cc1nc2c(C(=O)NCc3ccccc3Cl)cnn2c(C)c1Cc1ccccc1`: inactive: -3.63%; for `COc1ccc(NC(=O)Cn2c(=O)n(Cc3ccccc3)c(=O)c3oc4ccccc4c32)cc1Cl`: inactive: 1.39%. The same measure, in the same setting: next, `Cc1nc(N2CCCC2)ncc1C(=O)N1CCN(c2ccc(Cl)cc2)CC1`: inactive: 4.07%; `Cc1ccc(C)c(-n2cc(-c3ccccc3)nc2SCC(=O)Nc2ccccc2)c1`: inactive: 3.14%. Turning to `Cn1cc(S(=O)(=O)N2CCCCC2)cc1C(=O)N1CCN(c2ccccc2F)CC1`, the “activity change, negative = inhibition” value was inactive: -1.26%. For `O=C(CSc1nc2c([nH]c3ccccc32)c(=O)n1-c1ccc(Cl)cc1)N1CCCCCC1`, the “activity change, negative = inhibition” value is inactive: 0.905%. The same measure, in the same setting: the same measure for `COc1cccc(-c2csc(-c3c(N)c(C(=O)c4ccccc4)n4ccccc34)n2)c1`: inactive: 8.23%; for `CCOC(=O)c1ccccc1NC(=O)Cn1c(=O)n(CCCC(=O)NCc2ccc3c(c2)OCO3)c(=O)c2ccccc21`: inactive: -0.347%. Same read-out and setting: the same measure for `COC(=O)c1c(SCC(=O)Nc2cccc(Cl)c2C)[nH]c2ccccc2c1=O`: inactive: 0%; for `CN(C(=O)c1c2c(nc3ccccc13)C(=O)N(C1CCCCC1)C2)c1ccc(F)cc1`: inactive: -17.4%.

For `Cc1ccc(S(=O)(=O)NCCc2csc3nc(-c4ccccc4F)nn23)cc1C`, the “activity change, negative = inhibition” value is inactive: 2.32%. On the same count and under the same terms, next, `COc1cccc(-c2nc(SCc3ccc(C)cc3)n3[nH]c(=O)cc3n2)c1`: inactive: -1.77%; `CC(C)(C)OC(=O)N1CCC(c2c(C(=O)N3CCC(c4ccccc4)C3)cnn2-c2ccc(Cl)cc2)CC1` (stereo unspecified): inactive: 5.75%; `Cc1ccc(C)c(N2CCN(c3nc4ccc(Cl)cc4n4cnnc34)CC2)c1`: inactive: -3.7%.

Take `CCOC(=O)c1c(C)oc2ncnc(N3CCN(c4ccccc4)CC3)c12`: the “activity change, negative = inhibition” value is inactive: -13.8%. On to `O=[N+]([O-])c1ccc(S(=O)(=O)N2CCn3cccc3C2c2ccccc2F)cc1` (stereo unspecified), for which the “activity change, negative = inhibition” value was inactive: 0.166%. Turning to `CC(NC(=O)C1CCN(S(=O)(=O)c2ccc3c(c2)oc(=O)n3C)CC1)c1ccccc1` (stereo unspecified), the “activity change, negative = inhibition” value was inactive: -7.27%. On the same count and under the same terms, the same measure for `Cc1ccccc1OCc1nnc(SCc2cc(=O)c3ccc(C)c(C)c3[nH]2)n1C`: inactive: -6.56%; for `COc1ccccc1-c1nc(S(=O)(=O)c2ccccc2)c(N2CCC(C)CC2)o1`: inactive: -4.24%; for `Cc1ccc(-c2cc3c(n2-c2ccc(F)cc2)CC(C)(C)CC3=O)cc1`: inactive: -12.6%. Still for that read-out and setting: next, `COc1ccccc1CCNC(=O)C(=O)NCC(c1ccco1)S(=O)(=O)c1ccccc1` (stereo unspecified): inactive: -1.63%. On the same count and under the same terms, the same measure for `Cc1cccc(NC(=O)CSc2nc3ccccc3c3nc(CCc4c(C)n[nH]c4C)nn23)c1`: inactive: -9.52%; for `COc1ccc(Nc2nc3ccccc3nc2NS(=O)(=O)c2ccc(Cl)cc2)cc1OC`: inactive: -1.54%; for `CCOC(=O)c1cccc(NC(=O)CSc2nc3cc4ccccc4cc3[nH]2)c1`: inactive: -8.74%. Regarding `CC(C)c1cnc2c(c1SCC(=O)O)c(=O)n(C)c(=O)n2C`, the “activity change, negative = inhibition” value was inactive: -0.311%. As to `COc1ccccc1-c1cc(C(=O)NCCc2ccccc2)no1`, the “activity change, negative = inhibition” value was inactive: -17.6%. On the same count and under the same terms, the same measure for `CCC(C(=O)NCc1cccc(Br)c1)n1nc(C)c2c(C)n(-c3ccccc3)nc2c1=O` (stereo unspecified): inactive: -13.1%; for `CC(=O)Nc1ccc(NC(=O)c2cnn(-c3ccccc3)c2C2CCN(C(=O)OC(C)(C)C)CC2)cc1`: inactive: -3.65%.

`O=S(=O)(Nc1cccc(F)c1)c1ccc2[nH]c3c(c2c1)CCCCC3`: the “activity change, negative = inhibition” value was inactive: 0.297%. In the case of `COc1cc(OC)cc(C(=O)Nc2ccc3c(c2)OCCO3)c1`, the “activity change, negative = inhibition” value was inactive: 4.88%.

Take `O=C(CNC(=O)c1ccccc1F)OCc1cc(=O)n2nc(C3CC3)sc2n1`: the “activity change, negative = inhibition” value is inactive: -9.74%. Same read-out and setting: next, `CCOc1ccccc1Nc1nnc(-c2cc3cc(Cl)ccc3oc2=O)s1`: inactive: -0.0855%.

On to `CC(NC(=O)c1cc2ccccc2o1)c1ccccc1` (stereo unspecified), for which the “activity change, negative = inhibition” value was inactive: -16.2%. Still for that read-out and setting: next, `CCC(=O)N1CCc2cc(CNC(=O)c3ccc(C#N)cc3)ccc21`: inactive: -1.73%. As to `CCOc1ccc(NC(=O)CSC2=Nc3ccccc3C3=NC(Cc4ccccc4)C(=O)N23)cc1` (stereo unspecified), the “activity change, negative = inhibition” value was inactive: 1.59%. The same measure, in the same setting: the same measure for `CCOC(=O)c1c(C)[nH]c(C)c1S(=O)(=O)N1CCCC(C(=O)Nc2cccc(C)n2)C1` (stereo unspecified): inactive: 0.43%; for `CCCn1nc(NC(=O)c2cccc(Cl)c2)c2cc3cccc(C)c3nc21`: inactive: 5.75%; for `COc1ccc(-c2nc3sc(CCNC(=O)C(=O)Nc4ccc(C)c(F)c4)c(C)n3n2)cc1`: inactive: 0.137%. Take `COc1ccccc1CN1CCN(C2CCN(C(=O)Nc3ccccc3)CC2)C(=O)C1=O`: the “activity change, negative = inhibition” value is inactive: 0%. On the same count and under the same terms, next, `Cc1ccc(NC(=O)Cn2c(-c3nonc3N)nc3ccccc32)cc1C`: inactive: -1.35%.

As to `CCc1ccc(S(=O)(=O)c2cn(C)c3cc(F)c(F)cc3c2=O)cc1`, the “activity change, negative = inhibition” value is inactive: 3.46%. Turning to `CC(Nc1ccc(-c2nc(-c3ccco3)no2)cc1[N+](=O)[O-])c1ccccc1` (stereo unspecified), the “activity change, negative = inhibition” value was inactive: 5.65%. Regarding `CCS(=O)(=O)c1oc(-c2ccc(F)cc2)nc1S(=O)(=O)c1ccc(Br)cc1`, the Potency is active: 2610 nM.
